Consider three molecules from US20240076343A1 (CEPHALON, published 2024).

Common to all, as to experiment: cell-based or functional assay
Assay [1] addresses T1, high-affinity hIL-2 receptor (IL-2Rαβγ) (human, UniProt P01589 22-272; P14784 27-551; P31785 23-369).
T1 sequence 1: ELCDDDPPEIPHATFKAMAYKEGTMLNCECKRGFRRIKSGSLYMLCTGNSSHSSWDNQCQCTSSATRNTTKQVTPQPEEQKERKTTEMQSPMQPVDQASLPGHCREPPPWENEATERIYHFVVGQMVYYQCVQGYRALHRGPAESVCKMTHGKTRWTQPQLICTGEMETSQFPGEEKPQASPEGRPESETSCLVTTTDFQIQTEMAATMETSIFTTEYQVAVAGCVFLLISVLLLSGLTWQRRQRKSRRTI
T1 sequence 2: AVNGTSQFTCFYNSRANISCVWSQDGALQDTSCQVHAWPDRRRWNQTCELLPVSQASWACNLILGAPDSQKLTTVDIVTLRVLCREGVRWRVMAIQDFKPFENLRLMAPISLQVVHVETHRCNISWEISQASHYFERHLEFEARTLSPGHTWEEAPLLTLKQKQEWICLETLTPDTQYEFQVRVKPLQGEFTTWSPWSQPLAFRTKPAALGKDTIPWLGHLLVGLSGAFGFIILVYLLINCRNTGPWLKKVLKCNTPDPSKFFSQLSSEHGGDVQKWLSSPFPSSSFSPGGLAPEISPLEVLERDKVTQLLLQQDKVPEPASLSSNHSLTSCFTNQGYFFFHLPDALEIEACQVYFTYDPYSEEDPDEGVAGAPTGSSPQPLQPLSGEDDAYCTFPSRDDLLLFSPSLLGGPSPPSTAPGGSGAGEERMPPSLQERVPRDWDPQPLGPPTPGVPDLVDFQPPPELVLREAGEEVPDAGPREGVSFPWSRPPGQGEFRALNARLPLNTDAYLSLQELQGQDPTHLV
T1 sequence 3: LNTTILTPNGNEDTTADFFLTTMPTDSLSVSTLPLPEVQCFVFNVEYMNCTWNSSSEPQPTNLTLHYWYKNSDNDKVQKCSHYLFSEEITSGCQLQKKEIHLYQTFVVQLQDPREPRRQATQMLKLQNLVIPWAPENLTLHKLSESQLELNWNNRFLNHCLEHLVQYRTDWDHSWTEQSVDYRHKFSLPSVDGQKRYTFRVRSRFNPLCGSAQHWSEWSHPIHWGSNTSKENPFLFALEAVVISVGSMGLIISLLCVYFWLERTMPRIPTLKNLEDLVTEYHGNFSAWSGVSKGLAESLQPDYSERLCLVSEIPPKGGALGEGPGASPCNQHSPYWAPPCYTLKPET

The target of assay [2] is T2, high-affinity hIL-2 receptor (IL-2Rαβγ) on NK-92 cells (human, UniProt P01589 22-272; P14784 27-551; P31785 23-369).
T2 sequence 1: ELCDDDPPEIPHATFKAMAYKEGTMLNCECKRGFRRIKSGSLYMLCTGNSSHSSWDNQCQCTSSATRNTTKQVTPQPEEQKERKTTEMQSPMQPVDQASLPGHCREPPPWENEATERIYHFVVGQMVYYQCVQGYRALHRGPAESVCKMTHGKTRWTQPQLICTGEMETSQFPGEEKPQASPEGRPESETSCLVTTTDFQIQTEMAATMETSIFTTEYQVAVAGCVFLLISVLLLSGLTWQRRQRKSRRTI
T2 sequence 2: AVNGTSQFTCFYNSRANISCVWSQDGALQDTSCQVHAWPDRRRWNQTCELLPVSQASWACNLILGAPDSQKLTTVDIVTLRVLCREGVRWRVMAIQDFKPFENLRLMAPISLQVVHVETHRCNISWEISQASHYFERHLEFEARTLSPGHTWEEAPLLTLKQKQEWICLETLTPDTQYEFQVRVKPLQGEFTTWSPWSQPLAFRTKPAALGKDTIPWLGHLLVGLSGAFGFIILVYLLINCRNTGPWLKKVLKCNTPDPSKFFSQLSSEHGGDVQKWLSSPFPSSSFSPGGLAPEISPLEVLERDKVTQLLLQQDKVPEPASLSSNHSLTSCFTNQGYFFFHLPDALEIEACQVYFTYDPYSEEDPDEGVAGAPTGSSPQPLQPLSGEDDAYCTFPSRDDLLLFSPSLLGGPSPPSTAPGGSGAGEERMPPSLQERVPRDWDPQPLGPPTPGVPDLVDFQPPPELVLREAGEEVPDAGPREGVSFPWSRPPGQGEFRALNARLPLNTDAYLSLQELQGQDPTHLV
T2 sequence 3: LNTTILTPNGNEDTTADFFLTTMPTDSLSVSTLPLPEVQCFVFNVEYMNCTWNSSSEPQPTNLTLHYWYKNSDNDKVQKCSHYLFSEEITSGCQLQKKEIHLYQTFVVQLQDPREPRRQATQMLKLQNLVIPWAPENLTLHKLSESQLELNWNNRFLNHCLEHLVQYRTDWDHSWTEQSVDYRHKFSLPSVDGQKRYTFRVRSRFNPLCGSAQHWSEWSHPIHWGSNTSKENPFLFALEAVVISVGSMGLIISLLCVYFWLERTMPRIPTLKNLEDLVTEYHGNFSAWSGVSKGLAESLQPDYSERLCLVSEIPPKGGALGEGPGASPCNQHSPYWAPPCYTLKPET

Assay [3] deals with T3, intermediate-affinity hIL-2 receptor complex (IL-2Rβγ) on TF1+IL-2Rβ cells (human, UniProt P14784 27-551; P31785 23-369).
T3 sequence 1: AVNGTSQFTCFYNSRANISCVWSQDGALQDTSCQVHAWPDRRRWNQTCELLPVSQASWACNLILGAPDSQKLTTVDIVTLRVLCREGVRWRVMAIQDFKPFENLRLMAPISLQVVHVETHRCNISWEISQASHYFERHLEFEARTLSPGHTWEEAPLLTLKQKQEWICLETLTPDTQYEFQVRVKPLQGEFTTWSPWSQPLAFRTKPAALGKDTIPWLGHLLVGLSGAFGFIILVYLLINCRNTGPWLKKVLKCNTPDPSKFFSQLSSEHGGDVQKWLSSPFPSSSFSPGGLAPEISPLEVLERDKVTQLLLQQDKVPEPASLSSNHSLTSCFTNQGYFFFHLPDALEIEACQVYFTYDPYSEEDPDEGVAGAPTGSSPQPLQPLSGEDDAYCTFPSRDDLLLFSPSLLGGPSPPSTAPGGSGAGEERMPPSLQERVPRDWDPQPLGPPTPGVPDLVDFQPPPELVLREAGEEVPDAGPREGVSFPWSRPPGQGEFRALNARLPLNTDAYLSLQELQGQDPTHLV
T3 sequence 2: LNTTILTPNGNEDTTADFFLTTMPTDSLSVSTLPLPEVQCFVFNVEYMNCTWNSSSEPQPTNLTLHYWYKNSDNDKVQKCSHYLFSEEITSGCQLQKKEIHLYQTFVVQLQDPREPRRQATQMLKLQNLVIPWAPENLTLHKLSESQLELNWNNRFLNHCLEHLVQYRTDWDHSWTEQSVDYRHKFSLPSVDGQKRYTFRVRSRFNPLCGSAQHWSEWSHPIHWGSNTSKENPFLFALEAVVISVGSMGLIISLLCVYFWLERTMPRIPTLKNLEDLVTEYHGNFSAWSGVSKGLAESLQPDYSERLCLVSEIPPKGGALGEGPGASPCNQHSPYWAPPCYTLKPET

Where only a bound is given, the exact number is not on record here.

B1: 1H3-hIgG1-L6-hIL-2 (D20A/R38E/C125A) (other)
heavy: EVQLVESGGGLVQPGRSLKLSCAVSGFTFSDYAMAWVRQAPKKGLEWVATISYDGSRTYYRDSVKGRFTISRDNAKITLYLQMDSLRSEDTATYYCARHGSGYFDYWGQGVMVTVSS[not shown - human IgG1 constant region]SGGGGSAPTSSSTKKTQLQLEHLLLALQMILNGINNYKNPKLTEMLTFKFYMPKKATELKHLQCLEEELKPLEEVLNLAQSKNFHLRPRDLISNINVIVLELKGSETTFMCEYADETATIVEFLNRWITFAQSIISTLT
light: DTVLTQSPALAVSPGERVTISCRASESVRTGVHWYQQKPGQQPKLLIYGASNLESGVPARFSGSGSGTDFTLTIDPVEADDTATYFCQQSWNDPFTFGSGTKLEIKRTVAAPSVFIFPPSDEQLKSGTASVVCLLNNFYPREAKVQWKVDNALQSGNSQESVTEQDSKDSTYSLSSTLTLSKADYEKHKVYACEVTHQGLSSPVTKSFNRGEC
For B1, in assay [1], the “Agonistic Activity (NK-92), pSTAT5 titration” value was 50% and the “Fold change from rhIL-2 (NK-92), pSTAT5 titration” value was more than 10000 fold.

B2: 1H3-hIgG1-L6-hIL-2 (T3A/D20A/R38E/C125A) (other)
heavy: EVQLVESGGGLVQPGRSLKLSCAVSGFTFSDYAMAWVRQAPKKGLEWVATISYDGSRTYYRDSVKGRFTISRDNAKITLYLQMDSLRSEDTATYYCARHGSGYFDYWGQGVMVTVSS[not shown - human IgG1 constant region]SGGGGSAPASSSTKKTQLQLEHLLLALQMILNGINNYKNPKLTEMLTFKFYMPKKATELKHLQCLEEELKPLEEVLNLAQSKNFHLRPRDLISNINVIVLELKGSETTFMCEYADETATIVEFLNRWITFAQSIISTLT
light: DTVLTQSPALAVSPGERVTISCRASESVRTGVHWYQQKPGQQPKLLIYGASNLESGVPARFSGSGSGTDFTLTIDPVEADDTATYFCQQSWNDPFTFGSGTKLEIKRTVAAPSVFIFPPSDEQLKSGTASVVCLLNNFYPREAKVQWKVDNALQSGNSQESVTEQDSKDSTYSLSSTLTLSKADYEKHKVYACEVTHQGLSSPVTKSFNRGEC
In the case of B2, in assay [1], the “Agonistic Activity (NK-92), pSTAT5 titration” value turned out to be 90% and the “Fold change from rhIL-2 (NK-92), pSTAT5 titration” value is more than 10000 fold.

B3: hCD25-L20-hIL-2 Cterm heavy chain df (other)
heavy: EVQLVESGGGLVQPGRSLKLSCAVSGFTFSDYAMAWVRQAPKKGLEWVATISYDGSRTYYRDSVKGRFTISRDNAKITLYLQMDSLRSEDTATYYCARHGSGYFDYWGQGVMVTVSS[not shown - human IgG1 constant region]ELCDDDPPEIPHATFKAMAYKEGTMLNCECKRGFRRIKSGSLYMLCTGNSSHSSWDNQCQCTSSATRNTTKQVTPQPEEQKERKTTEMQSPMQPVDQASLPGHCREPPPWENEATERIYHFVVGQMVYYQCVQGYRALHRGPAESVCKMTHGKTRWTQPQLICTSGGGGSGGGGSGGGGSGGGS[not shown - about 150 residues]
light: DTVLTQSPALAVSPGERVTISCRASESVRTGVHWYQQKPGQQPKLLIYGASNLESGVPARFSGSGSGTDFTLTIDPVEADDTATYFCQQSWNDPFTFGSGTKLEIKRTVAAPSVFIFPPSDEQLKSGTASVVCLLNNFYPREAKVQWKVDNALQSGNSQESVTEQDSKDSTYSLSSTLTLSKADYEKHKVYACEVTHQGLSSPVTKSFNRGEC
On to B3, for which the “Fold change from rhIL-2 (NK-92)” value in assay [2] is 149 fold. Moreover, the “Fold change from rhIL-2 (TF1 + IL-2Rβ)” value in assay [3] was approximately 104 fold.
